This note sets out measurements from the supplement of paper PMC7125110.

Variants at the floor of the assay are shown more often than the library holds them. Where only a bound is given, the exact number is not on record here.

B1: glmS ribozyme (parent)
chain: AUAAAAGCGCCAGAACUACAGAAAUGUAGUUGACGAGGAGGAGGUUUAUCGAAUUUUCGGCGGAUGCCUCCAAA

What all share (conditions): with glucosamine-6-phosphate
Variants of B1 are the subject of data set [1]. The experiment in a line: kcat; higher = faster cleavage; RNA array. In outline:
(§1)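 Barcoded ribozyme variants, transcribed in situ by E. coli RNA polymerase on sequenced MiSeq chips, were followed via a hybridised Cy3 probe at 37 °C. Glucosamine-6-phosphate ranged from 40 μM to 10 mM in HEPES/KCl/Mg(OAc)2 buffer. kobs came from decay fits to per-tile medians, and kcat and KM from weighted Michaelis–Menten fits.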

Variants of B1 are the subject of data set [2]. The experiment in a line: self-cleavage kobs at 40 uM GlcN6P; higher = faster cleavage; RNA array. In outline: as §1
In data set [3] the parent is B1. The experiment in a line: self-cleavage kobs at 640 uM GlcN6P; higher = faster cleavage; RNA array. The gist of the method:
as §1

The variants in data set [4] derive from B1. The experiment in a line: self-cleavage kobs at 10000 uM GlcN6P; higher = faster cleavage; RNA array. The gist of the method:
as §1

Variants of B1 are the subject of data set [5]. The experiment in a line: self-cleavage kobs at 160 uM GlcN6P; higher = faster cleavage; RNA array. In outline:
as §1

The variants in data set [6] derive from B1. The experiment in a line: self-cleavage kobs at 2500 uM GlcN6P; higher = faster cleavage; RNA array. In outline: as §1

AUAAAAGCGCCAGAACUACAGAAAUGUAGUUGACGAGGAGCAGGUUUAUCGAAUUUUCGGCGGACGCCUCCAAA: the catalytic constant (kcat) with glucosamine-6-phosphate [1] was < 1e-05 s⁻¹. For the same variant, the “self-cleavage kobs at 40 uM GlcN6P” value with glucosamine-6-phosphate [2] was < 1e-05 s⁻¹. Also, the “self-cleavage kobs at 640 uM GlcN6P” value with glucosamine-6-phosphate [3] was < 1e-05 s⁻¹.

Take AUAAAAGCGCCAGAACUACAGAAAUGUAGUUGACGAGGAGGAGGUUUAUCGAAUUUUCGACGGAUGCCUCAAAA: the catalytic constant (kcat) with glucosamine-6-phosphate [1] was < 1e-05 s⁻¹. Besides, in the data set with glucosamine-6-phosphate [2], the “self-cleavage kobs at 40 uM GlcN6P” value is < 1e-05 s⁻¹.

As for AUAAAAGCGCCAGAACUACAGAAAUGUAGUUGACGAGGAGGAGGUUUAUCAAAUUUUUGGCGGAUGCCUCCAAA, the kcat in the data set with glucosamine-6-phosphate [1] was < 1e-05 s⁻¹. Moreover, in the data set with glucosamine-6-phosphate [2], the “self-cleavage kobs at 40 uM GlcN6P” value was < 1e-05 s⁻¹. Also, the “self-cleavage kobs at 10000 uM GlcN6P” value in the data set with glucosamine-6-phosphate [4] was < 1e-05 s⁻¹.

Take AUAAAAGCGCCAGAACUACAGAAAUGUAGUUGACGAGAAGGAGGUUUAUCGAAUUUUCGGCGGAUGCGUCCAAA: the kcat with glucosamine-6-phosphate [1] was < 1e-05 s⁻¹.

As for AUAAAAGCGCCAGAACUACAGAAAUGUAGUUGACAUGGAGGAGGUUUAUCGAAUUUUCGGCGGAUGCCUCCAAA, the catalytic constant (kcat) with glucosamine-6-phosphate [1] is < 1e-05 s⁻¹. Besides, the “self-cleavage kobs at 40 uM GlcN6P” value with glucosamine-6-phosphate [2] was < 1e-05 s⁻¹. Besides, the “self-cleavage kobs at 160 uM GlcN6P” value in the data set with glucosamine-6-phosphate [5] was < 1e-05 s⁻¹.

For AUAAAAGCGCCAGAACUACAGAAAUGUAGUUGACAAGGAGGAGGUUUAUCUAAUUUUCGGCGGAUGCCUCCAAA, the turnover number (kcat) in the data set with glucosamine-6-phosphate [1] was < 1e-05 s⁻¹. The “self-cleavage kobs at 40 uM GlcN6P” value with glucosamine-6-phosphate [2] was < 1e-05 s⁻¹. In addition, in the data set with glucosamine-6-phosphate [5], the “self-cleavage kobs at 160 uM GlcN6P” value is < 1e-05 s⁻¹.

With AUAAAAGCGCCAGAACUACAGAAAUGUAGUUGACGAGGAGGAGGUUUAUCUAAUUUUCGGCGGAUGCCUCUAAA, the kcat with glucosamine-6-phosphate [1] is < 1e-05 s⁻¹. Also, the “self-cleavage kobs at 640 uM GlcN6P” value with glucosamine-6-phosphate [3] was < 1e-05 s⁻¹.

As to AUAAAAGCGCCAGAACUACAGAAAUGUAGUUGACGAGAAGGAGGUUUAUCGAAUUUUCGGCCGAUGCCUCCAAA, the kcat in the data set with glucosamine-6-phosphate [1] was < 1e-05 s⁻¹. Besides, in the data set with glucosamine-6-phosphate [2], the “self-cleavage kobs at 40 uM GlcN6P” value was < 1e-05 s⁻¹. Also, the “self-cleavage kobs at 10000 uM GlcN6P” value in the data set with glucosamine-6-phosphate [4] is < 1e-05 s⁻¹.

Consider AUAAAAGCGCCAGAACUACAGAAAUGUAGUUGACGACGAGGAGGUUUAACGAAUUUUCGGCGGAUGCCUCCAAA, for which the kcat with glucosamine-6-phosphate [1] is < 1e-05 s⁻¹. The “self-cleavage kobs at 10000 uM GlcN6P” value in the data set with glucosamine-6-phosphate [4] was < 1e-05 s⁻¹.

With AUAAAAGCGCCAGAACUACAGAAAUGUAGUUGACGAGGAGGAGGUUUAUCAAAUUGUCGGCGGAUGCCUCCAAA, the kcat with glucosamine-6-phosphate [1] is < 1e-05 s⁻¹. Further, the “self-cleavage kobs at 640 uM GlcN6P” value in the data set with glucosamine-6-phosphate [3] is < 1e-05 s⁻¹.

In the case of AUAAAAGCGCCAGAACUACAGAAAUGUAGUUGACGAUGAGGAGGUUUAUCGAAUUUUCGGCGGGUGCCUCCAAA, in the data set with glucosamine-6-phosphate [1], the catalytic constant (kcat) is < 1e-05 s⁻¹. In the data set with glucosamine-6-phosphate [2], the “self-cleavage kobs at 40 uM GlcN6P” value is < 1e-05 s⁻¹.

As to AUAAAAGCGCCAGAACUACAGAAAUGUAGUUGACGAGGGGGAGGUUUACCGAAUUUUCGGCGGAUGCCUCCAAA, the catalytic constant (kcat) in the data set with glucosamine-6-phosphate [1] was < 1e-05 s⁻¹. For the same variant, in the data set with glucosamine-6-phosphate [2], the “self-cleavage kobs at 40 uM GlcN6P” value is < 1e-05 s⁻¹.

As to AUAAAAGCGCCAGAACUACAGAAAUGUAGUUGACGAGGAGGAUGUCUAUCGAAUUUUCGGCGGAUGCCUCCAAA, the kcat in the data set with glucosamine-6-phosphate [1] is < 1e-05 s⁻¹. Moreover, in the data set with glucosamine-6-phosphate [3], the “self-cleavage kobs at 640 uM GlcN6P” value is < 1e-05 s⁻¹. Further, the “self-cleavage kobs at 160 uM GlcN6P” value with glucosamine-6-phosphate [5] is < 1e-05 s⁻¹. Moreover, the “self-cleavage kobs at 10000 uM GlcN6P” value with glucosamine-6-phosphate [4] is < 1e-05 s⁻¹.

Take AUAAAAGCGCCAGAACUACAGAAAUGUAGUUGACGAGGAGGAGGGUUAUCAAAUUUUCGGCGGAUGCCUCCAAA: the turnover number (kcat) with glucosamine-6-phosphate [1] is < 1e-05 s⁻¹. Also, the “self-cleavage kobs at 40 uM GlcN6P” value with glucosamine-6-phosphate [2] is < 1e-05 s⁻¹. Further, the “self-cleavage kobs at 640 uM GlcN6P” value in the data set with glucosamine-6-phosphate [3] is < 1e-05 s⁻¹. Also, the “self-cleavage kobs at 2500 uM GlcN6P” value with glucosamine-6-phosphate [6] is < 1e-05 s⁻¹. The “self-cleavage kobs at 10000 uM GlcN6P” value with glucosamine-6-phosphate [4] was < 1e-05 s⁻¹.
